# Article PMC4336329 (PLoS ONE, 2015)
# The campaign covered roughly 310,000 compounds. About 2,200 (0.71%) showed an effect of 50% or more. Effects have a minus sign here. Some of the results follow.
# Molecular target: human ether-à-go-go-related gene (hERG) potassium channel (human, UniProt Q12809)
# Assay: primary screen, population patch clamp on CHO cells stably expressing hERG
# Sequence of human ether-à-go-go-related gene (hERG) potassium channel (Q12809 whole entry, looked up): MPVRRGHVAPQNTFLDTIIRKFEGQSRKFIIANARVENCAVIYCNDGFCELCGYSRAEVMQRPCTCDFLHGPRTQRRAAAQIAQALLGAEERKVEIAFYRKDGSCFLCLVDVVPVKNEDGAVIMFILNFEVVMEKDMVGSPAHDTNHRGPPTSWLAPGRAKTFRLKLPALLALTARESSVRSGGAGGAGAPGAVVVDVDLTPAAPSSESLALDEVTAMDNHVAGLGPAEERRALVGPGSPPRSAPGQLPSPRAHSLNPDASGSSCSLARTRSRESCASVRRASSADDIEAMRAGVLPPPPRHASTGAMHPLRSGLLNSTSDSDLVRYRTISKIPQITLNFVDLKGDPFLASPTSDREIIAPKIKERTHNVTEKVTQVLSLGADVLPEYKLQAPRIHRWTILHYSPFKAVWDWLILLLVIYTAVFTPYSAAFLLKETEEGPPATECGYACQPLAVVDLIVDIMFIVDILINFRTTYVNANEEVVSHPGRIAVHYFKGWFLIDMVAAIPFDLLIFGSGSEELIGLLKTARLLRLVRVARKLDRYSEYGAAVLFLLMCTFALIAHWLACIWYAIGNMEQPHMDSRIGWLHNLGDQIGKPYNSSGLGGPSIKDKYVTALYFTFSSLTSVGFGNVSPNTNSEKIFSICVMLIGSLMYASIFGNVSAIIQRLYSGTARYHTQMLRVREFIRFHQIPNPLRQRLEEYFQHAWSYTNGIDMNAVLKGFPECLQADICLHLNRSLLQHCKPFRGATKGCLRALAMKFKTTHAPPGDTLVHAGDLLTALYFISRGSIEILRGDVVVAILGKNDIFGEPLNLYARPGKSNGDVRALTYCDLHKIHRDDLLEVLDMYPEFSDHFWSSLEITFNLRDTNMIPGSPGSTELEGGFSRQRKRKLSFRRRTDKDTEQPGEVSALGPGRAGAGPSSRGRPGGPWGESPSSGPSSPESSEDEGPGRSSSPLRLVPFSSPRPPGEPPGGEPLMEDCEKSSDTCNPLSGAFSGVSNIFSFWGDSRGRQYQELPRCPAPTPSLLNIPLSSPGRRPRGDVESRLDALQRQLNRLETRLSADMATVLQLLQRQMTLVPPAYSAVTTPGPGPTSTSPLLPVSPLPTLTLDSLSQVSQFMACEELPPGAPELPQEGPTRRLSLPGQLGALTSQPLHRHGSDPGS
row,SMILES,"hERG current change (%, negative = inhibition) at 1uM"
1,N#C/C(=C\c1cccc([N+](=O)[O-])c1)c1nnc2n1CCCCC2,4.95%
2,Cc1ccc(C)c(S(=O)(=O)N2CCN(C(=O)Cc3ccsc3)CC2)c1,8.09%
3,O=C(C1CC(=O)N(c2ccccc2)C1)N1CCN(c2ccccc2F)CC1 (stereo not shown),14.8%
4,COc1ccccc1C(c1nnnn1Cc1ccccc1)N1CCN(c2nc3ccccc3s2)CC1.Cl (stereo not shown),16.6%
5,O=C1/C(=C\c2cccs2)Sc2ccc3ccccc3c21,12.2%
6,Cn1c(SCC(=O)NNC(=O)Nc2ccccc2)nnc1-c1ccccc1,8.01%
7,COc1ccc(/C=C2\SC(=S)N(CCCC(=O)N3CCOCC3)C2=O)cc1,-3.35%
8,CSCCC(NC(=O)c1ccccc1)C(=O)NCCc1ccc2c(c1)OCCO2 (stereo not shown),-9.01%
9,NS(=O)(=O)c1ccc(NC(=O)COC(=O)CCNC(=O)NC23CC4CC(CC(C4)C2)C3)cc1,2.89%
10,COc1ccc(S(=O)(=O)N2CCC(C(=O)N[C@@H](C)C(=O)NCc3cccc(OC)c3)CC2)cc1,24.8%
11,Fc1ccccc1CSc1nnnn1-c1ccc2c(c1)OCO2,-12.5%
12,Nc1ccccc1Nc1cc(-c2ccccc2)nn1-c1ccccc1,1.08%
13,O=C(Nc1ccccc1C(=O)Nc1ccc2c(c1)OCO2)c1ccco1,5.66%
14,CSc1ccc(Cl)c(C(=O)NCCCn2ccnc2)c1,9.71%
15,Cc1cccc(-n2c(N)cc(=O)[nH]c2=S)c1,0.389%
16,COc1ccc(OC)c(N2CC(O)(c3cccs3)[N+]3=C2SCCC3)c1.[Br-] (stereo not shown),-3%
17,Cc1csc(NC(=O)C2COc3ccccc3O2)n1 (stereo not shown),-13.5%
18,Cc1coc2c1c(C)cc1oc(=O)c(CC(=O)N[C@@H](CC(C)C)C(=O)O)c(C)c12,-1.7%
19,O=C(c1nc2ccc(Cl)cn2c1CN1CCC(CO)CC1)N1CCc2ccccc2C1,-0.374%
20,Cc1cnc(C(=O)Nc2ccc(S(=O)(=O)N(C(C)C)C(C)C)cc2)cn1,12.5%
21,COc1ccc(C2=C3C(=O)OCC3Cc3ncn(Cc4ccccc4)c32)cc1 (stereo not shown),8.39%
22,O=C(NNC(=O)c1ccc(Cl)cc1Cl)c1csc(-c2cccnc2)n1,1.02%
23,CC1CCN(S(=O)(=O)c2cc([N+](=O)[O-])ccc2Cl)CC1,6.55%
24,COc1ccccc1NC(=O)c1nnn(CC(=O)Nc2cc(C)cc(C)c2)c1N,16.2%
25,CCCNC(=O)c1cc(-c2ccc(Br)cc2)on1,9.53%
26,Cc1ccc(CNC(=O)CCCc2nc3ccccc3s2)cc1,8.65%
27,CC1(C2CC2)NC(=O)N(CC(=O)Nc2ccc(Cl)c([N+](=O)[O-])c2)C1=O (stereo not shown),4.43%
28,O=C(c1cc(COc2ccc(F)cc2Cl)on1)N(Cc1ccncc1)CC1CCCO1 (stereo not shown),-15.8%

row,SMILES,"hERG current change (%, negative = inhibition) at 1uM"
1,COc1ccccc1NC(=O)C(C)OC(=O)Cc1n[nH]c(=O)c2ccccc12 (stereo not shown),14.6%
2,COCCNC(=O)COC(=O)c1ccc(S(=O)(=O)N2CCOCC2)cc1,12.5%
3,Cc1ccccc1C(=O)Nc1ccccc1C(=O)NCc1ccccc1,0.985%
4,COc1ccc(OC)c(NS(=O)(=O)c2ccc3c(c2)C(C)(C)C(=O)N3C)c1,7.77%
5,Cc1cc(C(=O)N2CCN(c3ncccn3)CC2)c2cc(F)ccc2n1,15.4%
6,CCOC(=O)N1CCN(C(=O)COC(=O)CNC(=O)c2ccc(C)cc2)CC1,-3.09%
7,COC(=O)c1sc2nc[nH]c(=O)c2c1C,13%
8,CCOc1ccccc1NS(=O)(=O)c1cc2c3c(c1)CC(=O)N3CCC2,11.6%
9,CC(C)(C)c1ccc(C(=O)N/C(N)=N/c2nc3ccccc3o2)cc1,-4.19%
10,COc1ccc(Cl)cc1S(=O)(=O)NC(C)C(=O)NCc1ccc2c(c1)OCO2 (stereo not shown),7.77%
11,NNC(=S)Nc1c(Br)cc(F)cc1Br,13.1%
12,Cc1ccccc1NC(=O)CSc1nc2cc3c(cc2cc1C)CCC3,12.7%
13,CC(C)CNC(=O)CC(=O)N/N=C/c1cccs1,8.81%
14,O=C(c1cccnc1)N1CCN(C(=O)c2ccco2)CC1,11.1%
15,CC(/C=C1\SC(=O)N(CCCC(=O)O)C1=O)=C\c1ccccc1,11.9%
16,O=C(Oc1ccc2[nH]cc(CCN3C(=O)c4ccccc4C3=O)c2c1)c1ccco1,9.71%
17,O=C(c1ccc(=O)[nH]c1)N(Cc1ccco1)C1(C(=O)NC2CCCCC2)CCCCC1,-9.41%
18,Cc1ccc(-c2nc3sc(C(N)=O)c(N)c3c3c2CCCC3)cc1,10.3%
19,Cc1nc(NC(=S)NC(=O)c2ccco2)sc1C(=O)N(C)C,10.2%
20,CCn1cc(C(=O)NCc2ccc(OC)cc2)c(=O)c2ccc(C)nc21,24.9%
21,CN(C)c1ccc(C(=S)N2CCN(S(=O)(=O)c3ccccc3)CC2)cc1,10.3%
22,Cc1ccc(S(=O)(=O)NCc2c(-c3ccccc3)noc2C)cc1,1.72%
23,O=C(c1ccnc(Cl)c1)N1CCCC(N2CCN(c3ccccc3F)CC2)C1 (stereo not shown),-0.839%
24,O=C(CCn1c(=O)[nH]c2ccccc2c1=O)N1CCN(c2cccc(C(F)(F)F)c2)CC1,-5.77%
25,Cc1ccc(S(=O)(=O)CCC(=O)OCC(=O)N(C)CC(=O)Nc2ccc(F)cc2)cc1,-1.74%
26,CC1CCN(CCc2nc3cc(NC(=O)COc4ccc(Cl)cc4)ccc3n2C)CC1,-60.7%
27,O=C(CCCCCN1C(=O)CCC1=O)Nc1ccc(Cl)c(C(F)(F)F)c1,-8.08%
